The other results are listed elsewhere or left out.
What was measured:
Experiment in all cases: glycan array binding signal (z-score within array); higher = stronger binding
Details in all cases: glycan notation: IUPAC condensed, linker removed
[1] = target: Gal6S(b1-4)Glc
How it was run: (§1)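 Columns mapping to the same glycan were averaged after glycan names were converted to IUPAC-condensed notation. The data come from 3228 arrays in the Consortium for Functional Glycomics database, limited to those with an available protein sequence. Binding is reported as a within-array Z-score averaged across arrays of one protein sequence and across linkers.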

[2] = target: Gal6S(b1-4)Glc6S
How it was run: as §1

[3] = target: Gal6S(b1-4)GlcNAc
How it was run: as §1

[4] = target: Gal6S(b1-4)GlcNAc6S
How it was run: as §1

[5] = target: GalNAc(a1-3)Gal
How it was run: as §1

[6] = target: GalNAc(a1-3)GalNAc
How it was run: as §1

[7] = target: GalNAc(a1-3)GalNAc(b1-3)Gal(a1-4)Gal(b1-4)Glc
How it was run: as §1

[8] = target: GalNAc(a1-3)GalNAc(b1-3)Gal(a1-4)Gal(b1-4)GlcNAc
How it was run: as §1

[9] = target: GalNAc(b1-3)Gal
How it was run: as §1

[10] = target: GalNAc(b1-3)Gal(a1-4)Gal(b1-4)GlcNAc
How it was run: as §1

[11] = target: GalNAc(b1-3)Gal(a1-4)Gal(b1-4)GlcNAc(b1-3)Gal(b1-4)Glc
How it was run: as §1

[12] = target: GalNAc(b1-3)Gal(a1-6)Gal(b1-4)Glc
How it was run: as §1

[13] = target: GalNAc(b1-3)GalNAc
How it was run: as §1

[14] = target: GalNAc(b1-3)GlcNAc
How it was run: as §1

[15] = target: GalNAc(b1-4)Gal(b1-4)Glc
How it was run: as §1

[16] = target: GalNAc(b1-4)GlcNAc
How it was run: as §1

[17] = target: GalNAc(b1-4)GlcNAc(b1-2)Man
How it was run: as §1

[18] = target: GalNAc(b1-4)GlcNAc(b1-2)Man(a1-3)[GalNAc(b1-4)GlcNAc(b1-2)Man(a1-6)]Man(b1-4)GlcNAc(b1-4)GlcNAc
How it was run: as §1

[19] = target: GalNAc(b1-4)GlcNAc(b1-3)GalNAc(b1-4)GlcNAc
How it was run: as §1

[20] = target: GalNAc(b1-4)GlcNAc6S
How it was run: as §1

[21] = target: GalNAc(b1-6)GalNAc
How it was run: as §1

[22] = target: GalNAc3S(b1-4)GlcNAc
How it was run: as §1

[23] = target: GalNAc3S(b1-4)GlcNAc3S
How it was run: as §1

[24] = target: GalNAc3S(b1-4)[Fuc(a1-3)]GlcNAc
How it was run: as §1

[25] = target: GalNAc4S6S(b1-4)GlcNAc
How it was run: as §1

[26] = target: GalNAc6S(b1-4)GlcNAc
How it was run: as §1

[27] = target: Glc(a1-4)Glc
How it was run: as §1

[28] = target: Glc(a1-4)Glc(a1-4)Glc(a1-4)Glc
How it was run: as §1

[29] = target: Glc(a1-6)Glc(a1-6)Glc
How it was run: as §1

[30] = target: Glc(a1-6)Glc(a1-6)Glc(a1-6)Glc
How it was run: as §1

[31] = target: Glc(b1-4)Glc
How it was run: as §1

[32] = target: Glc(b1-6)Glc
How it was run: as §1

[33] = target: GlcA(b1-3)Gal
How it was run: as §1

[34] = target: GlcA(b1-3)GlcNAc
How it was run: as §1

[35] = target: GlcA(b1-6)Gal
How it was run: as §1

[36] = target: GlcA3S(b1-3)Gal(b1-4)GlcNAc(b1-2)Man
How it was run: as §1

[37] = target: GlcA3S(b1-3)Gal(b1-4)GlcNAc(b1-3)Gal(b1-4)Glc
How it was run: as §1

B1: Apa (Mycobacterium tuberculosis), Rv1860 (protein)
chain: MHQVDPNLTRRKGRLAALAIAAMASASLVTVAVPATANADPEPAPPVPTTAASPPSTAAAPPAPATPVAPPPPAAANTPNAQPGDPNAAPPPADPNAPPPPVIAPNAPQPVRIDNPVGGFSFALPAGWVESDAAHFDYGSALLSKTTGDPPFPGQPPPVANDTRIVLGRLDQKLYASAEATDSKAAARLGSDMGEFYMPYPGTRINQETVSLDANGVSGSASYYEVKFSDPSKPNGQIWTGVIGSPAANAPDAGPPQRWFVVWLGTANNPVDKGAAKALAESIRPLVAPPPAPAPAPAEPAPAPAPAGEVAPTPTTPTPQRTLPA
[1]
  glycan array binding signal (z-score): 0.412
[2]
  glycan array binding signal (z-score): 1.02
[3]
  glycan array binding signal (z-score): -0.201
[4]
  glycan array binding signal (z-score): -0.101
[5]
  glycan array binding signal (z-score): -0.135
[6]
  glycan array binding signal (z-score): -0.407
[7]
  glycan array binding signal (z-score): -0.489
[8]
  glycan array binding signal (z-score): 0.718
[9]
  glycan array binding signal (z-score): 0.01
[10]
  glycan array binding signal (z-score): 1.77
[11]
  glycan array binding signal (z-score): -0.373
[12]
  glycan array binding signal (z-score): 0.317
[13]
  glycan array binding signal (z-score): -0.334
[14]
  glycan array binding signal (z-score): 0.316
[15]
  glycan array binding signal (z-score): 0.95
[16]
  glycan array binding signal (z-score): -0.065
[17]
  glycan array binding signal (z-score): -0.412
[18]
  glycan array binding signal (z-score): 0.045
[19]
  glycan array binding signal (z-score): -0.527
[20]
  glycan array binding signal (z-score): -0.421
[21]
  glycan array binding signal (z-score): 0.188
[22]
  glycan array binding signal (z-score): 0.579
[23]
  glycan array binding signal (z-score): -0.538
[24]
  glycan array binding signal (z-score): -0.391
[25]
  glycan array binding signal (z-score): -0.233
[26]
  glycan array binding signal (z-score): 2.78
[27]
  glycan array binding signal (z-score): -0.058
[28]
  glycan array binding signal (z-score): -0.291
[29]
  glycan array binding signal (z-score): -0.058
[30]
  glycan array binding signal (z-score): 0.236
[31]
  glycan array binding signal (z-score): 2.25
[32]
  glycan array binding signal (z-score): -0.327
[33]
  glycan array binding signal (z-score): -0.094
[34]
  glycan array binding signal (z-score): -0.203
[35]
  glycan array binding signal (z-score): 1.05
[36]
  glycan array binding signal (z-score): 0.208
[37]
  glycan array binding signal (z-score): 0.468
